The whole screen tested about 46,000 compounds, of which about 60 (0.1%) were called active. Not shown: some 3% with an inconclusive outcome. Calls follow the shape of the dose curve; as a rule, active = well fitted inhibition curve with a large enough effect; inconclusive = small, poorly fitted or top-dose-only effect; inactive = no such curve, though single readings can be large or run the other way. This is one part of the list.
Assay: Primary qHTS assay for Inhibitors of ovarian cancer metastasis using an organotypic tumor microenvironment (TME) model. Also: nearly all actives have a fitted effect of over 65% in size.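 As to activity change, negative = inhibition: plate controls were DMSO wells for no effect and tomatine positive control wells for full effect.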
Details: SKOV3ip1-GFP adhesion/invasion on 3D omental model, fluorescence; series mostly up to 45.8 µM; activity change, negative = inhibition: at the top concentration
In short: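 A 3D layer of primary human omental fibroblasts, mesothelial cells, fibronectin and collagen I, grown 48 hr, received SKOV3ip1-GFP cells in serum-free medium plus compounds at 0.36-46 umol/L. After 2 hr RT and 16 hr 37 C, fixed adherent GFP cells were counted; normalized to DMSO and tomatine.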

Activity change, negative = inhibition, inactive:
CCCN(CCC)CCNC(=O)Cn1cnc2sc(C)c(S(=O)(=O)N3CCN(c4ccccc4OC)CC3)c2c1=O 6.74%
CC#CCn1c(N2CCC[C@@H](N)C2)nc2c1c(=O)n(Cc1nc(C)c3ccccc3n1)c(=O)n2C -23.2%
Cc1cc(C)n2nc(CNS(=O)(=O)c3ccc(F)cc3)nc2n1 2.08%
COc1ccccc1NC(=O)N1CCOc2ccccc21 -1.67%
COc1ccccc1NC(=O)Cn1c(=O)n(Cc2nc(C)no2)c(=O)c2cc3c(cc21)OCO3 -3.37%
CCN(CC)CCNC(=O)c1c(C)[nH]c(C=C2C(=O)Nc3ccc(F)cc32)c1C -23.8% [at 92.2 µM]
Cc1ccc(CNC(=O)c2ccc(CSCc3c(F)cccc3Cl)o2)cc1 0.796%
CCOc1ccc(/C=C/c2nc(C#N)c(N3CCCCCC3)o2)cc1 -6.67%
CCOC(=O)c1[nH]c(C)c(C(=O)NCCc2ccccc2)c1C 0.941%
CN(c1ccc(Cl)cc1)S(=O)(=O)c1nnc(NC(=O)c2ccco2)s1 22.7%
CCc1ccc(NC(=O)c2cc(CN3CCOCC3)on2)cc1 2.27%
CCOc1ccc(-n2c(SCC(=O)N3CCCc4ccccc43)nc3c([nH]c4ccccc43)c2=O)cc1 -4.3%
COc1ccc(CCNC(=O)C(=O)Nc2ccc(C)c(C)c2)cc1OC -11.4%
Cc1ccc(C)c(Oc2c(C(F)(F)F)oc3c(CN4CCN(C)CC4)c(O)ccc3c2=O)c1 12.2%
COc1ccc(C)cc1NC(=O)Cc1ccc(NC(=O)N2CCCCc3ccccc32)cc1 2.87%
CC(C)c1ccc(Nc2c(-c3ccsc3)nc3ccc(Cl)cn23)cc1 -4.87%
O=C(Nc1ccccc1[N+](=O)[O-])c1csnn1 13.8%
CCC(=O)C1=C(c2ccccc2)N(C(=O)CC)n2c(nnc2C2CCCCC2)S1 1.07%
O=C(CSc1nc(-c2cccs2)cc(C(F)(F)F)n1)Nc1ccccc1Cl -0.707%
O=C(Nc1ccc2nc(SCC(=O)N3CCc4ccccc43)sc2c1)c1ccc(Cl)cc1 -26.1%
COC(=O)c1c(SC)nc2ccccc2c1OCc1cc(C)ccc1C -0.75%
Cc1ccc(CNC(=O)c2ccc(NC(=O)c3nsc4ccccc34)cc2)cc1 -7.56%
CCOc1ccccc1NC(=O)C(=O)NCC(c1cccnc1)N1CCN(c2ccccc2)CC1 (configuration not stated) 13.4%
Cc1cccc(C(=O)Nc2sc3c(c2C(=O)Nc2ccccc2)CCC3)c1 2.86%
Cc1ccc(NC(=O)CN2C(=O)C(c3ccc(F)cc3)=NC2(C)C)c(C)c1 3.95%
CCOc1ccc(CCNC(c2nnc(-c3ccccc3)o2)c2ccccc2Cl)cc1OCC (configuration not stated) -9.24%
CCCN(C(=O)Cn1nc(Cc2cccnc2)c2ccccc2c1=O)c1ccc(C(C)C)cc1 -1.51%
CCc1ccccc1NC(=O)Cn1c(=O)oc2ccccc21 11.3%
CC1=C(C(=O)OC2CCCCCC2)C(c2c(Cl)cccc2Cl)CC(=O)N1 (configuration not stated) -20.5%
CCOc1ccc(C2CC(=O)c3c([nH]c(C(=O)OC4CCCCCC4)c3C)C2)cc1 (configuration not stated) 0.0887%
COc1ccc(C(=O)NCC(c2cccs2)S(=O)(=O)c2cccs2)cc1 (configuration not stated) -8.78%
Cc1ccc(S(=O)(=O)Nc2nc3n(n2)C(c2ccc(Cl)cc2)C=C(c2ccccc2)N3)cc1 (configuration not stated) -9.29%
COc1ccc(CCNC(=O)c2cc(-c3ccc(C)c(C)c3)nc3ccccc23)cc1OC -8.48%
O=S(=O)(c1ccc(Br)cc1)N1CCn2cccc2C1c1ccc(Br)cc1 (configuration not stated) 4.51%
COc1ccc(-c2nc(CS(=O)CC(=O)NCc3ccccc3Cl)c(C)o2)cc1OC (configuration not stated) -1.23%
CCOCCc1nn2c(=O)cc(COC(=O)c3ccc4c(c3)OCO4)nc2s1 2.65%
Cc1nn(C)c2c1c(C(F)(F)F)cc(=O)n2C(C)C(=O)NCc1ccccc1 (configuration not stated) 3.29%
Cc1ccc(C)c(N2CCN(CCCNC(=O)c3ccc4nc(C(C)C)oc4c3)CC2)c1 2.01%
O=C(NCc1ccccc1)c1ccc2c(c1)sc1nc(-c3ccc(F)cc3)cn12 10.1%
Cc1oc2c(c(C)cc3oc(=O)c(CC(=O)NCCc4ccc(Cl)cc4)c(C)c32)c1C -7.7%
Cc1cccc(NC(c2nnc(-c3ccccc3)o2)c2ccc(F)cc2Cl)c1C (configuration not stated) -13.7%
Cc1ccc(Cl)cc1N1CCN(C(=O)C2CCN(S(=O)(=O)c3c(C)noc3/C=C/c3ccccc3F)CC2)CC1 -3.3%
Cc1ccc(-c2cn3c(n2)sc2cc(C(=O)NC4CCCCCC4)ccc23)c(C)c1 -0.902%
CC1(C)O[C@H]2[C@@H](O1)[C@@H](C(=O)Nc1cc(F)ccc1F)O[C@@H]1OC(C)(C)O[C@@H]12 -2.88%
O=C(O)CCSc1nnc(-c2ccc(Cl)cc2Cl)o1 1.64%
CCOC(=O)c1ccc(CN(Cc2ccc(Cl)cc2Cl)S(=O)(=O)c2cccc(Cl)c2)cc1 20.7%
COc1ccc(-c2nc3n(n2)C(c2cccc(C)c2)C(C(N)=O)=C(C)N3)cc1OC (configuration not stated) 17.7%

outcome, inactive:
O=C(CCn1c(=O)c2ccccc2n(Cc2ccc(Cl)cc2)c1=O)NCc1ccc2c(c1)OCO2
CCOc1ccccc1NC(=O)CCS(=O)(=O)c1ccc(OC)cc1
Cc1cccc(-n2ccnc2SCC(=O)Nc2cc(C(F)(F)F)ccc2Cl)c1
CCCCC(=O)Nc1cccc(-c2nc3ccccc3s2)c1
CCn1cc(C(=O)NCc2ccccc2Cl)c(=O)c2cc(S(=O)(=O)N3CCOCC3)ccc21
CCOC(=O)C1=C(CN(C)Cc2ccccc2)NC(=O)NC1c1ccc(OC(C)C)cc1 (configuration not stated)
CCCOc1ccc(CNC(=O)c2cc3oc4ccccc4c3n2C)cc1
Cc1ccc(NC(=O)[C@H](Cc2ccccc2)N2Cc3ccccc3C2=O)cc1F
O=C(CN1C(=O)CC(c2ccco2)Sc2ccccc21)Nc1ccc(OC(F)(F)F)cc1 (configuration not stated)
CCCn1c2ccc(C)cc2c2nnc(SCCN3CCCCC3)nc21
Cc1ccc(CNc2nc3nc(C)c(Cl)c(C)n3n2)cc1
Cn1c(C(=O)Nc2cccc(Cl)c2)cc2c(=O)n(C)c3ccccc3c21
CCc1ccccc1NC(=O)CSc1nc2ccccc2nc1Cc1cccc(OC)c1
CC(C)c1nn2c(=O)cc(COC(=O)COc3ccccc3F)nc2s1
Cc1cc(-c2ccc(C)c(S(=O)(=O)N(C(C)C)C3CCCCC3)c2)on1
